Data from PubChem BioAssay AID504332 (National Center for Advancing Translational Sciences (NCATS), 2011).
The whole screen tested about 350,000 compounds, of which about 31,000 (8.9%) were called active. The inconclusive results got no clear call from the source; some entries with a clear call stand among them for comparison. Calls follow the shape of the dose curve; as a rule, active = well fitted inhibition curve with a large enough effect; inconclusive = small, poorly fitted or top-dose-only effect; inactive = no such curve, though single readings can be large or run the other way. Potencies of inconclusive entries are doubtful fits and often do not repeat.

molecular target: Histone-lysine N-methyltransferase EHMT2 (Homo sapiens) (UniProt Q96KQ7); test: qHTS Assay for Inhibitors of Histone Lysine Methyltransferase G9a; details: G9a H3K9 monomethylation, AlphaScreen, 2 h; activity, negative = inhibition: at 59 µM (top of the series) unless noted; also: nearly all actives have a fitted effect of over 75% in size
Outline: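 Step 1: enzyme (final 20 nM) with compound, 15 min RT. Step 2: substrate peptide 500 nM and SAM 20 uM, 2 h RT. Step 3: anti-H3K9me1 antibody and AlphaScreen beads, 10 min, then plate read.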
% is scaled to controls: 0 for no effect and ±100 for the full control effect; potency is read from the fitted curve at half-maximal effect; tags tell the direction and shape of the fitted curve.

UniProt Q96KQ7, sequence (Q96KQ7 whole entry, looked up): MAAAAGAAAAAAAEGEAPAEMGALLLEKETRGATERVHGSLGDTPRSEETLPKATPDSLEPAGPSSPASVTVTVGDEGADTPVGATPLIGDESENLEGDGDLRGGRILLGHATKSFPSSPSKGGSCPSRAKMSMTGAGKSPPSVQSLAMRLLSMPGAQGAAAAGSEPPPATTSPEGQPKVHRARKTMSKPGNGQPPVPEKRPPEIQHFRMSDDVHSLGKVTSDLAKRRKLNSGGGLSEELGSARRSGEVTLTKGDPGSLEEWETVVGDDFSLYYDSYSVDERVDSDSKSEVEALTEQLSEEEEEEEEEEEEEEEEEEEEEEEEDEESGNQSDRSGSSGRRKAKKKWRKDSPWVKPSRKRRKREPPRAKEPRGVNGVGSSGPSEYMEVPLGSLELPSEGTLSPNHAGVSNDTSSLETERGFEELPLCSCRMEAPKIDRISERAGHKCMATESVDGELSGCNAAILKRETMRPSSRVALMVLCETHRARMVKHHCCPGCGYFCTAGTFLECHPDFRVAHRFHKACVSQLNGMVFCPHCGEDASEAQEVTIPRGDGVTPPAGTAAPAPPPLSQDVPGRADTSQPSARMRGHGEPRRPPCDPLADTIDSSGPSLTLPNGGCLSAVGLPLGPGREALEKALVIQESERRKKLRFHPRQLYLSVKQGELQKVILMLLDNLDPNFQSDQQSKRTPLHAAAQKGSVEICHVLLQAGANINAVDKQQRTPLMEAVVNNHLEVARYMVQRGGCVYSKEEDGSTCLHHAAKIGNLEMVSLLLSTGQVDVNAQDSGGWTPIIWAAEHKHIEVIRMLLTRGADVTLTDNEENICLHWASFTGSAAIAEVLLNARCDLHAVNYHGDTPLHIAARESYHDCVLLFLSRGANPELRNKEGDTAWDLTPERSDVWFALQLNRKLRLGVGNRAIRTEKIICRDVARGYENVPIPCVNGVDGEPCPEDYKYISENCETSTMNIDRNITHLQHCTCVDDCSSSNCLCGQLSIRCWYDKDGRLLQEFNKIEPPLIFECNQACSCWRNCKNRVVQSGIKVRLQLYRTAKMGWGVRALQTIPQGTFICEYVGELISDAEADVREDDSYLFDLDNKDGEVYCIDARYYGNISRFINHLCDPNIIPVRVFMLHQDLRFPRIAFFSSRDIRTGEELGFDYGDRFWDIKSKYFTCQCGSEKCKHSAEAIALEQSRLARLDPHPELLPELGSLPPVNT

Compound	Potency	activity, negative = inhibition
CCCCNC(=O)c1cc(C)nn1-c1ccccc1	inconclusive: 89.1 µM [inhibitor, single point]	–
O=C(COCc1cc(-c2ccco2)on1)Nc1ccc(OC(F)(F)F)cc1	inconclusive: 15.8 µM [inhibitor, partial curve, poor fit]	–
CNS(=O)(=O)c1cc(C(=O)NCc2ccco2)ccc1Cl	inconclusive: 2.24 µM [inhibitor, partial curve, poor fit]	–
CCOC(=O)c1ccc(NC(=S)NNC(=O)C2(C)CC2(Cl)Cl)cc1 (stereo not given)	active: 10 µM	–
CC(C)NC(=O)COc1ccccc1C#N	inconclusive: 89.1 µM [inhibitor, partial curve, poor fit]	–
CCc1nn(CC(=O)NCc2cccc(OC)c2)c(=O)c2cc3cc(F)ccc3n12	inconclusive: 39.8 µM [inhibitor, single point]	–
CCn1c(CCNC(=O)c2ccc(Cl)cc2Cl)n[nH]c1=S	active: 39.8 µM	–
c1ccc(NCc2cccnc2)cc1	active: 44.7 µM	–
Cc1ccc([N+](=O)[O-])cc1N/C=C1\CCc2ccccc2C1=O	–	inconclusive: -77% [inhibitor] [at 2.33 µM]
CCOc1ccc(NC(=O)c2ccc(NC(=O)Cc3n[nH]c(=O)c4ccccc34)cc2)cc1	active: 56.2 µM	–
CSc1nc2c(c(=O)[nH]1)C(c1ccccc1)C1=C(CC(C)(C)CC1=O)N2 (stereo not given)	–	inactive: 7.38% [at 102 µM]
COc1ccc(C2C(C#N)=C(N)Nc3nc4ccccc4n32)cc1 (stereo not given)	inconclusive: 1.41 µM [inhibitor, partial curve, poor fit]	–
NC(=O)CSc1nnc(-c2ccc(S(=O)(=O)N3CCCCC3)cc2)n1-c1ccccc1	inconclusive: 39.8 µM [inhibitor, partial curve, poor fit]	–
COc1cccc(/C(C#N)=C/c2c(-c3ccc(Cl)cc3)nc3c(C)cccn23)c1	active: 10 µM	–
Cc1ccc(-c2nc(C(Cl)Cl)c3ccccc3n2)cc1	inconclusive: 50.1 µM [inhibitor, partial curve, poor fit]	–
CCN1CCc2nc(NC(=O)c3cc(F)c(F)cc3Cl)sc2C1	inconclusive: 50.1 µM [inhibitor, partial curve, poor fit]	–
Cc1ccccc1C(=O)Nc1cccc(C(=O)N/N=C/c2ccccn2)c1	inconclusive: 0.282 µM [inhibitor, partial curve, poor fit]	–
Cc1ccc(NC(=O)CCn2cccc2)cc1	inconclusive: 89.1 µM [inhibitor, single point]	–
COc1ccccc1OCC(=O)Nc1ccc(N2CCOCC2)cc1N1CCOCC1	inconclusive: 15.8 µM [inhibitor, partial curve, poor fit]	–
Cc1csc2c(=O)sc(NC(=O)c3cccs3)nc12	inconclusive: 56.2 µM [inhibitor, partial curve, poor fit]	–
O=[N+]([O-])c1ccc(C(O)CN2CCN(Cc3ccccc3)CC2)cc1 (stereo not given)	–	inactive: -20.7% [at 102 µM]
O=C1c2oc3ccc(Br)cc3c(=O)c2C(c2cccc(F)c2)N1CCO (stereo not given)	inconclusive: 70.8 µM [inhibitor, partial curve, poor fit]	–
COc1ccc(C(=O)NC(=S)N2CCCCC2)cc1[N+](=O)[O-]	inconclusive: 39.8 µM [inhibitor, single point]	–
O=C(NNS(=O)(=O)c1ccc(F)cc1)c1ccccc1O	active: 31.6 µM	–

Compound	Potency	activity, negative = inhibition
Cc1ccccc1NC(=O)c1ccc(NC(=O)C2CCCO2)cc1 (stereo not given)	–	inactive: 14.4% [at 102 µM]
CCOc1ccc(NC(=O)CN(C)C(=O)C2CCN(c3ncnc4sc(C)c(C)c34)CC2)cc1OCC	inconclusive: 79.4 µM [inhibitor, partial curve, poor fit]	–
Cc1ccc(NC2c3ccccc3C(=O)N2CCN2CCOCC2)cc1 (stereo not given)	–	inactive: -3.4% [at 102 µM]
CCOc1ccccc1NC(=O)CSc1cc(=O)n(CC)c2ccccc12	inconclusive: 28.2 µM [inhibitor, single point]	–
O=C(Cn1cc(S(=O)(=O)Cc2ccc(F)cc2)c2ccccc21)NCc1ccccc1	–	inactive: -4.29%
CC(=O)N(C)C1=C(N2CCOCC2)C(=O)c2ccccc2C1=O	–	inconclusive: -65.8% [inhibitor]
NC(=O)c1ccc[n+](CC(=O)Nc2ccccc2C(=O)O)c1	inconclusive: 89.1 µM [inhibitor, single point]	–
COc1ccc(NC(=O)c2sccc2SCc2cccc(C(F)(F)F)c2)cc1	inconclusive: 39.8 µM [inhibitor, single point]	–
COc1cccc(/C=C2\SC(=O)N(CCC(=O)NC3CCS(=O)(=O)C3)C2=O)c1 (stereo not given)	inconclusive: 28.2 µM [inhibitor, full curve, poor fit]	–
Cc1ccc(-c2nnc(CSc3nnc(C)s3)o2)cc1	inconclusive: 39.8 µM [inhibitor, single point]	–
Cc1nc(SC2CC(=O)N(c3cc(Cl)cc(Cl)c3)C2=O)nc2c1CCCC2 (stereo not given)	–	inconclusive: -68% [inhibitor]
CC(C)(CNC(=O)c1cc2ccccc2o1)N1CCOCC1	inconclusive: 50.1 µM [inhibitor, partial curve]	–
CSc1nnc(-c2cc3ccccc3cc2O)n1C	inconclusive: 70.8 µM [inhibitor, single point]	–
COCCNC(=O)/C(C#N)=C/c1c(N2CCN(c3ccccc3)CC2)nc2c(C)cccn2c1=O	inconclusive: 1.26 µM [inhibitor, single point]	–
CCCNC(=O)CN1C(=O)c2cccnc2Sc2ccccc21	–	inactive: -6.16%
CCOc1cnc(-c2ccc(OC)cc2)o1	–	inactive: 14%
CC(C)n1nnnc1SCC(=O)c1c(N)n(C2CC2)c(=O)[nH]c1=O	inconclusive: 35.5 µM [inhibitor, single point]	–
O=C(O)c1cc(-c2ccccc2Cl)n[nH]1	inconclusive: 25.1 µM [inhibitor, single point]	–
S=C(Nc1ccc(Cl)cc1)N1CCN(C2CCCCC2)CC1	–	inactive: 17.8% [at 2.33 µM]
CCN1CCN(c2nnc(-c3ccccc3)c3ccccc23)CC1	inconclusive: 89.1 µM [inhibitor, single point]	–
CCOC(=O)c1cnc(SCC(=O)OCC(=O)N(CC)C2CCS(=O)(=O)C2)nc1N (stereo not given)	inconclusive: 56.2 µM [inhibitor, partial curve]	–
COc1ccc2cc(CNc3ccc(OC)c(OC)c3)c(=O)n(CC(=O)Nc3ccc(C)cc3)c2c1	active: 2.82 µM	–
CSc1ccc(S(=O)(=O)N2CCN(Cc3ccc4c(c3)OCO4)CC2)cc1	active: 79.4 µM	–
Cc1ccc(CN2CC(C(=O)NC(c3nc4ccccc4[nH]3)C(C)C)CC2=O)cc1 (stereo not given)	inconclusive: 0.316 µM [inhibitor, full curve, poor fit]	–

Compound	Potency	activity, negative = inhibition
CCc1cc(=O)[nH]c(SCC(=O)NCc2ccc3c(c2)OCO3)n1	inconclusive: 79.4 µM [inhibitor, single point]	–
CC(=O)c1ccc(NC(=S)NCCc2ccc(S(N)(=O)=O)cc2)cc1	–	inactive: -23.9% [at 102 µM]
CCOC(=O)C1C(c2ccc(O)c(O)c2)NC(=S)NC1(O)C(F)(F)F (stereo not given)	inconclusive: 7.08 µM [inhibitor, partial curve, poor fit]	–
Cc1c(C=O)c2ccccn2c1C(=O)c1ccccc1	–	inactive: 29.8%
COc1ccc(N2CCN(C(c3ccc4ncccc4c3)c3nnnn3C(C)C)CC2)cc1 (stereo not given)	inconclusive: 39.8 µM [inhibitor, partial curve, poor fit]	–
CCOc1ccc(/C=C/c2nc(C#N)c(N3CCC(C)CC3)o2)cc1	inconclusive: 12.6 µM [inhibitor, partial curve]	–
CSc1n[nH]c(/N=C/c2oc(O)c3ccccc23)n1	active: 20 µM	–
CC(=O)Nc1nc2ccccc2n1CCN(C)C	active: 39.8 µM	–
CCOC(=O)c1ccc(NC(=O)CCC(=O)OC)cc1	inconclusive: 39.8 µM [inhibitor, partial curve, poor fit]	–
Cc1cccc(C)c1Nc1c(-c2ccsc2)nc2cccc(C)n12	inconclusive: 1.12 µM [inhibitor, partial curve, poor fit]	–
Cc1ccc2nc(CSc3nnc(Nc4ccccc4C)s3)cc(=O)n2c1	inconclusive: 20 µM [inhibitor, single point]	–
COc1cc(N=c2ssnc2Cl)cc(OC)c1	inconclusive: 1.58 µM [inhibitor, full curve, poor fit]	–
CC(Nc1ccccc1)c1cc(Cl)ccc1O (stereo not given)	–	inactive: -10.5%
CCOc1ccc(N(CC(=O)NCCOc2ccccc2OC)S(=O)(=O)c2ccccc2)cc1	inconclusive: 20 µM [inhibitor, full curve]	–
O=S(=O)(c1ccc(SCCOc2ccccc2Cl)nc1)N1CCCC1	–	inactive: -16.4%
Cc1cccc(NC(=O)N2CCN3CCCCC3C2)c1C (stereo not given)	–	inactive: -20.7%
CCN(CC)S(=O)(=O)c1cc([N+](=O)[O-])ccc1N=Nc1c(O)n(C)c2ccccc12	–	inactive: -0.516%
COc1ccc(-c2csc(Nc3cc(C)ccn3)n2)cc1OC	active: 39.8 µM	–
CCc1ccc(NC(=O)C2CCCN(c3nnc(C)c4c(C)n(-c5ccccc5)nc34)C2)cc1 (stereo not given)	inconclusive: 5.62 µM [inhibitor, single point]	–
O=C(c1ccc2nc(-c3ccco3)c(-c3ccco3)nc2c1)N1CCN(c2ccccc2)CC1	inconclusive: 3.55 µM [inhibitor, single point]	–
C/C=C/c1ccc(OCC(=O)OCC(=O)Nc2c(C)nn(-c3ccccc3)c2C)c(OC)c1	inconclusive: 44.7 µM [inhibitor, partial curve]	–
Cc1ccc(C(=O)N2CCN(c3ccc(NC(=S)NC(=O)Cc4ccccc4)cc3)CC2)cc1	inconclusive: 44.7 µM [inhibitor, partial curve, poor fit]	–
